Here are results for 167 variants from the RNAGym collection of RNA variant scans (doi:10.7554/elife.90254).

The source gives no read counts; variants with many changes may rest on few reads.

The labels stand for the following.
B1: LINE1-mini (parent)
chain: GGCAGAGCUCAACACAGCGUGGCAAAGUGGCUGUGGCUAGACUGCC

This data set covers variants of B1. As to the kind of experiment: self-cleavage, relative activity (ratio to wild type); higher = more cleavage; in vitro, sequencing; the parent is a self-cleaving ribozyme.
Turning to C18A A25G C31G, the self-cleavage turned out to be 0.04.

For G17U A24U U28A C42U, the self-cleavage was 0.04.

C18A A25G U34A: the self-cleavage was 0.07.

Regarding G17C G22A G35U, the self-cleavage was determined as 0.03.

As to C18A G19C G29A G40U, the self-cleavage was 0.11.

In the case of C18U C23U G40A A41U, the self-cleavage turned out to be 0.02.

Take C18A G22U C37U C45A: the self-cleavage worked out at 0.07.

With G17C G19C G21C U28C C45G, the self-cleavage was 0.04.

Consider C18G G21C G29U U32C G40A C45A, for which the self-cleavage worked out at 0.

On to G17U G35C A41G, for which the self-cleavage was 0.13.

For G17C G19U G29U G40U, the self-cleavage turned out to be 0.01.

As to C18A U32A C37U, the self-cleavage was found to be 0.01.

For G19A A26U A41U, the self-cleavage turned out to be 0.4.

For the variant G17U G35A A41C, the self-cleavage stood at 0.01.

With G17C U20C C37A, the self-cleavage stood at 0.01.

As for G17C C23G A26U, the self-cleavage amounted to 0.17.

For C18U G19A G21U U28C, the self-cleavage worked out at 0.85.

C18G C31G U34G: the self-cleavage worked out at 0.02.

G17U A24U G29U C45A: the self-cleavage is 0.02.

As to G17U G22A A41U C46A, the self-cleavage worked out at 0.09.

For the variant C18U U20A G22A G30A C46G, the self-cleavage amounted to 0.44.

In the case of G17U C23A A41U, the self-cleavage came out at 0.09.

As for C18U G30C A41U G44A C46G, the self-cleavage was determined as 0.01.

For the variant C18G G27U U32A G35A, the self-cleavage was 0.01.

For G17C G21C C42G, the self-cleavage came out at 0.04.

Regarding C18U U43G C45A, the self-cleavage came to 0.05.

As for G17U G35C U38G A39G, the self-cleavage stood at 0.01.

As to C18G U20C C31U G35A C45A, the self-cleavage came to 0.02.

C18G G27U A39G: the self-cleavage stood at 0.14.

For G17C A26C G30A C45G, the self-cleavage is 1.4.

Regarding C18A U20C C42A, the self-cleavage worked out at 0.05.

With G17U A25G G30A, the self-cleavage was found to be 0.16.

Consider G17U U20C A26C G27C A41G G44U, for which the self-cleavage turned out to be 0.06.

For G17C C23A G36C C42G, the self-cleavage was found to be 0.01.

For G17C C18G A26U G44A, the self-cleavage was found to be 0.18.

C18A A25G G27C: the self-cleavage is 0.01.

As to C18A U20G G33U, the self-cleavage stood at 0.03.

For G17U G21A U32C U34C G36A G40A, the self-cleavage is 0.06.

For C18A G21C G44C, the self-cleavage was found to be 0.04.

In the case of C18A U34C G35C, the self-cleavage was determined as 0.04.

For the variant G17C C18U G22U G36A, the self-cleavage is 0.07.

On to C18U G19U A24C, for which the self-cleavage is 0.08.

For C18A G19U A41C, the self-cleavage came out at 0.04.

For G17C C18U G29C, the self-cleavage is 0.11.

Turning to G17U G40C C46A, the self-cleavage stood at 0.05.

As to C18U G19A A25G G27A C42G, the self-cleavage is 0.02.

As to G17U A25G C42G, the self-cleavage was 0.03.

As to C18G G19U G33U, the self-cleavage is 0.01.

C18A C31G U38A: the self-cleavage turned out to be 0.11.

Take C18A G22A G27U G36A: the self-cleavage came out at 0.01.

For the variant G17C G19A C31G G35A C42U, the self-cleavage came out at 0.05.

Consider G17C G22U U28C, for which the self-cleavage came out at 0.32.

For the variant C18A A26G U28C G33A, the self-cleavage is 0.2.

Regarding G17U C18U C31A U38A, the self-cleavage amounted to 0.56.

As to G17U G22C G30A, the self-cleavage came out at 0.36.

Take G17U U20A A24C C31U: the self-cleavage amounted to 0.14.

In the case of C18A G21U G33C C42G, the self-cleavage was found to be 0.

Regarding C18U G22C G36A, the self-cleavage worked out at 0.08.

Turning to G19A A26U U38G, the self-cleavage stood at 0.02.

As for C18U C23U G29U U32C, the self-cleavage came to 1.12.

Take C18G A26G G30U U32A: the self-cleavage amounted to 0.06.

As to G17U G27U C37A C45G C46A, the self-cleavage came to 0.01.

For C18A C23U A24U G40U C46A, the self-cleavage worked out at 0.08.

As to C18U U28C U32G U38A G44U, the self-cleavage was found to be 0.03.

Regarding C18A G19C U43G, the self-cleavage turned out to be 0.02.

For the variant C18A G27A G29U G36U, the self-cleavage was 0.05.

On to C18G C31A G40C, for which the self-cleavage turned out to be 0.06.

As for C18U G29C G36C, the self-cleavage was determined as 0.2.

As for C18G G30A U34A C42U U43C, the self-cleavage came to 0.08.

Consider C18G A41C U43G G44U, for which the self-cleavage turned out to be 0.

Take G19A C23U G40C U43G: the self-cleavage stood at 0.02.

In the case of G17U G19A U34C C37G G40C, the self-cleavage was determined as 0.03.

Turning to C18G G29A G30U U32A G35U, the self-cleavage is 0.05.

On to G17C C18A G22U G27A, for which the self-cleavage was determined as 0.07.

G17U C31U A39U: the self-cleavage amounted to 0.01.

Turning to G17U A26C G27U A41U, the self-cleavage stood at 0.05.

Take G17U U20A G22C G27U: the self-cleavage turned out to be 0.73.

On to C18G G27U G40U C45U C46U, for which the self-cleavage is 0.06.

Consider C18A A25U G29U, for which the self-cleavage was 2.32.

Consider G17C C18G U20C A39U, for which the self-cleavage was determined as 0.01.

As for C18U C31A C42U, the self-cleavage turned out to be 0.02.

Take C18A G22U A24U A41U: the self-cleavage was determined as 0.14.

On to C18U G29A G44C, for which the self-cleavage turned out to be 0.23.

Regarding C18G C23A U32A, the self-cleavage came to 0.04.

For the variant C18G G27C G29A G36A U38C A41C, the self-cleavage is 0.01.

On to G17C G27U U32C, for which the self-cleavage was found to be 0.04.

Take C18A G19U G27U: the self-cleavage was found to be 1.39.

Regarding G17C G35A C42U, the self-cleavage stood at 0.1.

C18U G33U G40A: the self-cleavage was determined as 0.

On to G17U G27C G29A, for which the self-cleavage worked out at 0.15.

In the case of C18G G19U G36U, the self-cleavage turned out to be 0.04.

Take C18A U34A C42U: the self-cleavage was 0.03.

As to C18A G19A C23U, the self-cleavage turned out to be 0.16.

As for G17U G30C C46G, the self-cleavage is 0.1.

For the variant G17U G27U U28G, the self-cleavage came to 0.08.

G17U C18U U32A U43G C46U: the self-cleavage was found to be 0.03.

Consider G17C C23U C45A, for which the self-cleavage was determined as 1.52.

For the variant G17C C31A G36A, the self-cleavage was found to be 0.05.

Consider C18U G27U U32G C42A, for which the self-cleavage came to 0.03.

For C18U G35U U43A, the self-cleavage was 0.03.

As for G17U G36A C37U A39G, the self-cleavage is 0.09.

With G19A A24U G40C, the self-cleavage amounted to 0.04.

As to G17U U20A C31A, the self-cleavage amounted to 1.22.

With C18U A25U U43A, the self-cleavage was found to be 0.02.

On to C18A G33U G40C, for which the self-cleavage was 0.02.

Take G19A C31G U38G: the self-cleavage came out at 0.03.

For the variant G17C A26G G27A G30A G44A, the self-cleavage came to 0.32.

As for G17U G27A G36C, the self-cleavage was 0.08.

Consider G17C G21A G29U C31U G35A, for which the self-cleavage was found to be 0.01.

In the case of G17U G21U U28C A41G, the self-cleavage worked out at 0.

C18U U32G A41C C46A: the self-cleavage stood at 0.03.

For the variant C18U A25C G29U, the self-cleavage is 0.29.

Take G17C C31U C37U A41U: the self-cleavage is 0.03.

G17U C18A G21C A24U A39G U43A: the self-cleavage was determined as 0.21.

As for G17C G21C U43C, the self-cleavage came to 0.24.

As for C18A G19U G36C, the self-cleavage is 0.05.

In the case of C18U A39U C45A, the self-cleavage amounted to 0.05.

On to G17U C37U A39U C42G G44A, for which the self-cleavage was found to be 0.07.

On to G17C U20C G30U G35A C45U C46U, for which the self-cleavage stood at 0.02.

G17U A26U G40A: the self-cleavage came to 0.01.

With G17U G29U G30A, the self-cleavage turned out to be 0.41.

For the variant C18U G27A C37U, the self-cleavage was 0.04.

C18G A25C U32G U34C: the self-cleavage is 0.03.

C18A A26G G40C: the self-cleavage stood at 0.08.

Turning to C18U G22U U32C G35U, the self-cleavage was 0.04.

Regarding C18A G29U G36A, the self-cleavage amounted to 0.1.

For the variant G17C G21A G22A C31U U32C, the self-cleavage worked out at 0.39.

G17C G33U G40C: the self-cleavage is 0.08.

In the case of G19A C37A C46A, the self-cleavage came out at 0.02.

In the case of G17C G19C C42A C45A, the self-cleavage is 0.03.

C18G C42A U43C: the self-cleavage was determined as 0.16.

For the variant C18A A24U U43A G44A, the self-cleavage was determined as 0.01.

As to C18U U43A C45A, the self-cleavage came to 0.

Take G17U C23A C42A: the self-cleavage amounted to 0.15.

C18G G19U C23A C31U U32C G35C A41G G44U: the self-cleavage was found to be 0.13.

In the case of G17U G22U U28A, the self-cleavage worked out at 1.09.

In the case of C18G G30U G33C U43C, the self-cleavage came out at 0.03.

As to G17U C31U G35A G44U, the self-cleavage amounted to 0.03.

Regarding C18G G36A U43A C45A, the self-cleavage was determined as 0.02.

In the case of C18A U32A C42A C46A, the self-cleavage was found to be 0.03.

As for C18U A25C G40C, the self-cleavage was found to be 0.04.

Consider G19A A25U G30A, for which the self-cleavage was determined as 2.09.

Regarding C18G C37U G40A G44U, the self-cleavage was 0.

For C18G G19A U34C, the self-cleavage worked out at 0.02.

With G19A A39G U43A G44U, the self-cleavage came to 0.07.

Consider G17C G21U G35C G40A, for which the self-cleavage amounted to 0.02.

On to G17C G36A C42G, for which the self-cleavage was found to be 0.02.

For C18A U34A A39G, the self-cleavage was found to be 0.03.

Regarding C18U G21C U32A A39C, the self-cleavage came to 0.09.

Consider G17U G29U C37A, for which the self-cleavage is 0.03.

As for C18U C37A G40U, the self-cleavage amounted to 0.18.

Regarding C18A C42G C46A, the self-cleavage was determined as 0.03.

As for C18A G27A U43C, the self-cleavage came to 0.07.

Regarding G17U C42U U43A, the self-cleavage came to 0.03.

Take C18A U20G G22U G29C: the self-cleavage was 0.28.

As for C18U G22U A25G, the self-cleavage is 1.11.

Turning to G17U G30U C37U, the self-cleavage amounted to 0.06.

For G19A G21C G29C C37A G40C C42U C45U, the self-cleavage came to 0.03.

Turning to G19A C23A U34G, the self-cleavage is 0.23.

In the case of C18A U32G G44C, the self-cleavage is 0.03.

For C18A U32G G44A, the self-cleavage is 0.01.

For the variant G17U G19C U38C, the self-cleavage stood at 0.18.

As for C18G C31A C37U C45A, the self-cleavage worked out at 0.09.

As to C18G G27C G29U, the self-cleavage was found to be 1.21.

For C18U G33C G44U, the self-cleavage was determined as 0.02.

For the variant G17U G30U A41U, the self-cleavage came out at 0.08.

With C18G U20C C23U C37G, the self-cleavage is 0.06.
